Results: PubChem BioAssay AID1460 (National Center for Advancing Translational Sciences (NCATS), 2008)
“And” between values parts separate entries of the source, which are not always exact repeats. Equal values may be shown once. In all, about 270,000 compounds went through this assay and about 5,800 (2.1%) were called active. The inconclusive results got no clear call from the source; some entries with a clear call stand among them for comparison. Calls follow the shape of the dose curve; as a rule, active = well fitted inhibition curve with a large enough effect; inconclusive = small, poorly fitted or top-dose-only effect; inactive = flat fitted curve, though single readings scatter. A potency beside an inconclusive call is a rough fit, not a confirmed value.

The compounds below were run against Microtubule-associated protein tau (Homo sapiens) (UniProt P10636) (assay: qHTS for Inhibitors of Tau Fibril Formation, Thioflavin T Binding). Details: recombinant tau K18 P301L (four-repeat tau fragment), heparin-induced fibrillization, ThT fluorescence; series mostly up to 57.4 µM; activity, negative = inhibition: at the top concentration.
Method in brief: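 Tau K18 P301L fragment (15 uM unlabeled plus 0.24 uM Alexa 594-labeled) in 100 mM sodium acetate pH 7 with compound, fibrillization induced by 20 uM heparin for 6 hr at 37 C. Thioflavin T (30 uM) added, fluorescence read after 1 hr (ex 450, em 510 nm).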
% is scaled to controls: 0 for no effect and ±100 for the full control effect; potency is read from the fitted curve at half-maximal effect; tags tell the direction and shape of the fitted curve.
Also: nearly all actives have a fitted effect of over 55% in size.

UniProt P10636, sequence (P10636 whole entry, looked up, the tested form may be a part): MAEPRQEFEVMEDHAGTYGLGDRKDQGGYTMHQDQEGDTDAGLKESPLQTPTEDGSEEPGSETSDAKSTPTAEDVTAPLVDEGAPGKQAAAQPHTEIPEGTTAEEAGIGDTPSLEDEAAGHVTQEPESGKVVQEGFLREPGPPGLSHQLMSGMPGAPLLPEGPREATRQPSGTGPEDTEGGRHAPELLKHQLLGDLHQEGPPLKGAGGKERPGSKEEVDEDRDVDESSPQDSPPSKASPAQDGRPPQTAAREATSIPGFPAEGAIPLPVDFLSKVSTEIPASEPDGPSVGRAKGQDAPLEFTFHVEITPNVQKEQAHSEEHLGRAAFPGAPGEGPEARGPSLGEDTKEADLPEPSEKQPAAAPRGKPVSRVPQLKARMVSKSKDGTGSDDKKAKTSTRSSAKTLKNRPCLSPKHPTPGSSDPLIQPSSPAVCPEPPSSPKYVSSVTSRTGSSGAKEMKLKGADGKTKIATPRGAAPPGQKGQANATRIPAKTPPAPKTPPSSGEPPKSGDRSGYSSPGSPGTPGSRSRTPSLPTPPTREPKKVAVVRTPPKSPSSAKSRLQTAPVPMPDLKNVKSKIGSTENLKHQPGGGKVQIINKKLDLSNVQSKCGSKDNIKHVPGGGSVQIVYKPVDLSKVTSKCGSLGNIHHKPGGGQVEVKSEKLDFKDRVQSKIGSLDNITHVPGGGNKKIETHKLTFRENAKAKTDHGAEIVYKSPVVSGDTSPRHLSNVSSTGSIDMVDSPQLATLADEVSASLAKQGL

| SMILES | activity, negative = inhibition | Potency |
| --- | --- | --- |
| CCOC(=O)c1cccc(NC(=O)CCc2c(C)nc3c4cccnc4nn3c2C)c1 | inactive: -7.38% |  |
| Cc1ccc(CN2C(=O)C3(SCC(=O)N3c3ccc(C)c(C)c3)c3ccccc32)cc1 (stereo not given) |  | inconclusive: 31.6 µM [inhibitor, single point] |
| CCNC(=O)C(C)Oc1ccc(Cl)cc1Cl (stereo not given) | inactive: 1.61% |  |
| CCOC(=O)c1cc2c(ccn2C)n1CC(=O)N1CCC(Cc2ccccc2)CC1 |  | inconclusive: 28.2 µM [inhibitor, single point] |
| COC(=O)NC(c1cccc(C)c1)[C@]1(C(C)=O)CCOC1=O (stereo not given in full) | inactive: -11.1% [at 11.5 µM] |  |
| COc1ccc(C2NC(=O)N(C)C3=C2C(=O)N(c2ccccc2)C3)cc1 (stereo not given) | inactive: -5.78% |  |
| COc1ccc(-c2nc(C)c(CCNC(=O)c3cccc(C)c3)s2)cc1OC |  | inconclusive: 6.31 µM [inhibitor, partial curve] |
| COc1ccccc1CNc1ncnc2ccc(-c3ccccc3CN(C)C)cc12 | inactive: -7.27% |  |
| COCCNC(=S)Nc1cc(S(=O)(=O)N2CCOCC2)ccc1N1CCCCC1 |  | active: 35.5 µM |
| COc1ccc(CC(=O)Nc2ccc(C(N)=O)cc2)cc1 | inactive: -11.1% |  |
| CCOC(=O)Cc1csc(CC(N)=O)n1 | inactive: -4% |  |
| CCOC(=O)c1cnc2c(N=Nc3cccc(Cl)c3)c(N)nn2c1N |  | active: 2.51 µM |
| COCCNC(=O)C(=O)Nc1ccc2nc3n(c(=O)c2c1)CCCCC3 | inactive: -7.58% |  |
| Cc1ccc(C(=O)OCCn2cc(C#N)c(=O)[nH]c2=O)cc1 | inactive: -3.64% |  |
| O=C(O)c1ccc(C(=O)c2ccc3c(c2)C(=O)N(CC2CCCO2)C3=O)cc1 (stereo not given) | inactive: -6.23% |  |
| Cc1cnc2c(C(=O)O)cnn2c1 | inactive: -4.58% |  |
| C=CCNc1ncnc2c1cnn2-c1ccc(OC)cc1 |  | inconclusive: 17.8 µM [inhibitor, partial curve] |
| Cc1cc(C(=O)N/N=C/c2cc(Cl)cc([N+](=O)[O-])c2O)c2ccccc2n1 |  | active: 7.08 µM |
| CCOc1ccc(CCNC(=O)c2cc3cc4ccc(OC)cc4nc3s2)cc1OCC |  | inconclusive: 0.631 µM [inhibitor, partial curve, poor fit] |
| CCCCC1=CC2=C(c3ccco3)C(=O)C(C)(OC(=O)c3ccc(OC)cc3)C(=O)C2=CN1Cc1ccc2c(c1)OCO2 (stereo not given) |  | inconclusive: 3.55 µM [inhibitor, full curve] and inconclusive: 3.16 µM [inhibitor, single point] |
| O=C(CSc1c2c(nc3ccc(Cl)cc13)CCCC2)N1CCCCC1 |  | inconclusive: 0.562 µM [inhibitor, full curve, poor fit] |
| Cc1cccc(C(=O)Nc2cc3c(cc2N2CCCCC2)n(C)c(=O)n3C)c1 |  | inconclusive: 17.8 µM [inhibitor, partial curve, poor fit] |
| CCOC(=O)c1nnc(-c2cccs2)nc1Oc1ccccc1C(=O)OC |  | inconclusive: 5.62 µM [inhibitor, partial curve] |
| CCOC(=O)c1ccc(Nc2nc(=O)c3cccnc3s2)cc1 |  | inconclusive: 11.2 µM [inhibitor, partial curve] |

| SMILES | activity, negative = inhibition | Potency |
| --- | --- | --- |
| CCOCCCn1c(=N)c(S(=O)(=O)c2ccccc2)cc2c(=O)n3cc(C)ccc3nc21 |  | inconclusive: 39.8 µM [activator, single point] |
| COc1ccc(NC(=O)C/C(C)=N/NC(=O)C(=O)Nc2cccc(Cl)c2C)c(OC)c1 |  | inconclusive: 17.8 µM [inhibitor, partial curve] |
| COc1ccc2nc(C)cc(SCC(=O)N/N=C/c3ccc(O)c(O)c3)c2c1 |  | inconclusive: 11.2 µM [inhibitor, partial curve] |
| Cc1ccc(N2C(=O)SC(Cc3ccccc3)C2=O)cc1 (stereo not given) |  | inconclusive: 28.2 µM [inhibitor, partial curve] |
| CCN(CC)CCCN1C=C2C(=O)C(C)(OC(=O)CCC(=O)OC)C(=O)C=C2C=C1C1CC1 (stereo not given) | inactive: -9.87% [at 11.5 µM] |  |
| Cc1ncc([N+](=O)[O-])n1CCOC(=O)Nc1ccc([N+](=O)[O-])cc1 |  | inconclusive: 11.2 µM [inhibitor, partial curve] |
| CCOc1ccc(NC(=O)c2cccc(N3CCCS3(=O)=O)c2)cc1 |  | inconclusive: 35.5 µM [inhibitor, single point] |
| COc1ccc(/C=C/C(=O)c2cc(Br)ccc2O)cc1OC |  | inconclusive: 12.6 µM [inhibitor, partial curve] |
| O=C1C=CC(=C(c2ccc(O)cc2)c2ccc(O)cc2)C=C1 |  | inconclusive: 14.1 µM [inhibitor, partial curve] |
| CC(C)(C)Nc1nc(OCC(F)(F)F)nc(OCC(F)(F)F)n1 | inactive: -0.119% |  |
| CCCCC(=O)Nc1nnc(S(=O)(=O)N2CCCCCC2)s1 |  | inconclusive: 15.8 µM [inhibitor, partial curve] |
| CC(OC(=O)C1CCN(S(=O)(=O)c2ccc(Cl)cc2)CC1)C(=O)N1CCc2ccccc21 (stereo not given) | inactive: -15.3% |  |
| CCC(C)NCCOCCOc1ccc(Cl)c2ccccc12 (stereo not given) | inactive: -9.6% |  |
| Cc1nc(NC(=O)c2cc3c(C)nn(-c4ccccc4)c3s2)sc1C(=O)Nc1ccccc1 | inactive: -19.1% |  |
| Cn1c(SCc2nc3cc(C(=O)O)ccc3c(=O)[nH]2)nnc1C(F)(F)F | inactive: -4.47% |  |
| CCCCCCC(=O)Nc1nc(C)c(-c2csc(Nc3cc(Cl)ccc3OC)n2)s1 |  | inconclusive: 12.6 µM [inhibitor, partial curve] |
| COC(=O)c1cc2sccc2n1Cc1ccc(F)cc1 |  | inconclusive: 15.8 µM [inhibitor, single point] |
| Cc1ccc(S(=O)(=O)/N=C2\SC(CC(=O)Nc3ccc(F)cc3)C(=O)N2c2ccccc2)cc1 (stereo not given) | inactive: 5.04% |  |
| COc1ccc(/C=N/n2cnc3c([nH]c4ccc(C)cc43)c2=O)cc1CN1CCCC1 |  | inconclusive: 39.8 µM [activator, single point] |
| COc1ccc(-c2noc(-c3ccccc3OCC(=O)Nc3ccc(C(C)=O)cc3)n2)cc1 |  | inconclusive: 35.5 µM [inhibitor, single point] |
| O=C(CN1CCN(c2nc(-c3ccccc3)cs2)CC1)Nc1ccc2c(c1)OCO2 |  | inconclusive: 3.55 µM [inhibitor, partial curve] |
| O=[N+]([O-])c1ccc2c(OCc3nnc(-c4ccccc4Br)o3)ncnc2c1 |  | inconclusive: 11.2 µM [inhibitor, partial curve] |
| COc1ccc(C2C=C(c3ccc(C)cc3)Nc3c(C(=O)Nc4ccccc4)cnn32)cc1 (stereo not given) | inactive: -5.19% |  |
| Fc1ccc(CNc2nc(-c3ccco3)cc(C(F)(F)F)n2)cc1 |  | inconclusive: 28.2 µM [inhibitor, single point] |

| SMILES | activity, negative = inhibition | Potency |
| --- | --- | --- |
| O=c1c2ccccc2nc(/C=C/c2ccc([N+](=O)[O-])cc2)n1CCCO |  | inconclusive: 14.1 µM [inhibitor, partial curve] |
| CCCCn1c(SCC(=O)NCCOC)nc2ccc(N3CCOCC3)cc2c1=O | inactive: -14.6% |  |
| COc1ccccc1CNC(=O)c1cc2sccc2n1Cc1ccc(F)cc1 | inactive: -4.57% |  |
| O=C(CSc1nnc(-c2cccc(F)c2)o1)Nc1nncs1 |  | inconclusive: 25.1 µM [inhibitor, partial curve, poor fit] |
| Cc1cccc(N2CCN(C(=O)c3ccc4ncsc4c3)CC2)c1C |  | inconclusive: 25.1 µM [inhibitor, partial curve] |
| Cc1cc(OCC(=O)O/N=C(\N)Cc2cccs2)ccc1Br |  | inconclusive: 35.5 µM [inhibitor, partial curve] |
| CCOC(=O)N1CCN(c2c(NCc3ccccc3Cl)c(=O)c2=O)CC1 | inactive: 3.09% |  |
| CC1CCCCN1C(=O)c1cc(-c2ccc(Cl)c(Cl)c2)on1 (stereo not given) | inactive: -12.6% |  |
| COc1ccccc1N1CCN(C(=O)c2cc(-c3ccco3)on2)CC1 | inactive: -10.9% |  |
| COC(=O)c1ccc(OCC(=O)c2ccccc2)cc1 |  | inconclusive: 44.7 µM [inhibitor, single point] |
| CC(C)c1ccc(CNc2cc(N3CCCC3)ccc2[N+](=O)[O-])cc1 |  | inconclusive: 17.8 µM [inhibitor, partial curve] |
| Oc1cccc(-c2nc3ncccn3c2Nc2cccc(C(F)(F)F)c2)c1 | inactive: -7.69% |  |
| CCn1cc(C(=O)NCCc2ccc(Cl)cc2)c(=O)c2cc(S(=O)(=O)N3CCOCC3)ccc21 | inactive: -9.12% |  |
| Cc1ccc2nc(SCC(=O)Nc3cccc([N+](=O)[O-])c3)[nH]c2c1 |  | inconclusive: 17.8 µM [inhibitor, partial curve] |
| CCOC(=O)c1[nH]c2ccccc2c1NC(=O)c1ccc(OC)c(OC)c1 |  | inconclusive: 11.2 µM [inhibitor, partial curve] |
| Fc1ccc(-c2nc3c(-c4ccccc4)cnn3cc2CCN2CCOCC2)cc1 |  | inconclusive: 31.6 µM [inhibitor, partial curve] |
| Cc1cccc(C)c1N1CCN(C(=O)Cn2cncn2)CC1 |  | inconclusive: 44.7 µM [inhibitor, single point] |
| O=C(CCC(=O)Nc1cccc(Cl)c1)N/N=C/c1cc([N+](=O)[O-])ccc1O |  | inconclusive: 17.8 µM [inhibitor, partial curve] |
| COc1ccc(NC(=O)c2ccc(-n3nc(C)cc3C)cc2)cc1OC |  | inconclusive: 25.1 µM [inhibitor, partial curve, poor fit] |
| C=CCn1c(C(CC)CC(C)(C)O)n[nH]c1=S (stereo not given) | inactive: -6.12% |  |
| Cc1cc(C)cc(Oc2nc3c(C)cccn3c(=O)c2/C=C(\C#N)C(=O)NC2CCS(=O)(=O)C2)c1 (stereo not given) |  | inconclusive: 17.8 µM [inhibitor, single point] |
| O=C(CSc1ccc(-c2ccccn2)nn1)N1CCc2ccccc21 |  | inconclusive: 11.2 µM [inhibitor, partial curve] |
